From ChEMBL document CHEMBL4888484, “Replenishing the malaria drug discovery pipeline: Screening and hit evaluation of the MMV Hit Generation Library 1 (HGL1) against asexual blood stage Plasmodium falciparum ,using a nano luciferase reporter read-out” (2022)
In all, about 150,000 compounds went through this assay and about 540 (0.36%) showed an effect of 50% or more. The list shows a part of the results.

Test system: Plasmodium falciparum
Test: Primary screen in NF54 nanoGlo assay, in single point, at 2uM, 72h; a lower Z score goes with more inhibition
Assay type: functional, Erythrocyte
Conditions: timepoint 72 hour

Row | SMILES | % Inhibition | Z score
1 | O=C1OCCC1N1CCCC(Cn2cncn2)C1 (stereo unspecified) | 5% | -0.63
2 | CC1CCCC1(C#N)NC(=O)CCn1cccn1 (stereo unspecified) | 2% | -0.24
3 | CS(=O)(=O)c1ccc2nc(NC(=O)C3CCCC3)sc2c1 | -1% | 0.28
4 | CN(C)Cc1csc(CNC(=O)Nc2cc3n(n2)CCCC3)n1 | -3% | 0.66
5 | Cc1cc(C(=O)N2C[C@@H]3CC[C@H]2CN(Cc2cscn2)C3)c(C)o1 | -3% | 0.61
6 | Cc1cccc(-c2nccc(Oc3ccc(C(=O)Nc4ccc5c(c4)OCCO5)cc3)n2)c1 | -9% | 1.68
7 | COCCC1(CNS(=O)(=O)c2cccc3c2OC(C)(C)C3)CC1 | -5% | 0.54
8 | O=C(NC1CCCC(C2CC2)C1)c1cccc[n+]1[O-] (stereo unspecified) | 1% | -0.07
9 | CCN(Cc1nn(-c2ccccc2)c2c1CN(Cc1cc(F)ccc1F)CC2)C(=O)NCc1ccccc1 | -11% | 1.62
10 | CCc1nc(C)c(CC(=O)N2CC[C@H](OC)C2)c(=O)[nH]1 | -13% | 2.66
11 | CC(C)c1noc(C(C)N2CCCN(C(=O)C3CCCO3)CC2)n1 (stereo unspecified) | -18% | 1.51
12 | Cc1ncsc1C(=O)NC1CCC(F)(F)CC1 | -8% | 1.52
13 | Cc1ccc(CNC(=O)C(=O)Nc2cccc(N3CCCC3=O)c2)cc1 | -3% | 0.47
14 | CCc1c(C)sc(NC(=O)C(C)(C)C)c1C#N | 31% | -3.52
15 | O=C1C[C@H]2CC[C@@H](CN1)N2C(=O)Cn1nnc2ccccc2c1=O | -8% | 1.29
16 | Cc1cc(C)cc(Oc2cnn(-c3ccccc3)c(=O)c2Nc2cccc(C(=O)NCc3ccccn3)c2)c1 | -14% | 1.25
17 | Cc1nc(-c2c(-c3ccccc3)ncn2C2CC(C)(C)NC(C)(C)C2)c[nH]1 | 2% | -0.28
18 | O=C(N1CCCC1)N1CCC2(CCN(C/C=C/c3ccco3)CC2)CC1 | -3% | 0.51
19 | Cc1ncsc1CN(C)c1ncnc2[nH]nc(C)c12 | -9% | 1.39
20 | O=C(Cc1nnc2cc(-c3nc(C4CC4)no3)ccn12)Nc1cccc(F)c1 | -6% | 1.05
21 | Cc1cc(-c2csc(NC(=O)c3cncnc3C)n2)c(F)cc1F | 0% | -0.02
22 | Cc1c(CNCCN2CCC[C@H](CO)C2)[nH]c2ccc(Cl)cc12 | -1% | 0.11
23 | Cc1nnc(CNC(=O)C2C(C)C2(F)F)n1C (stereo unspecified) | -7% | 0.81
24 | C[C@H]1CN(C(=O)c2cc(N3CCCC3=O)ccc2F)CCN1CC(C)(C)O | -16% | 2.55
25 | CC(=O)NCCCC(=O)N[C@@H](C)c1ccc(C)nc1 | -14% | 1.49
26 | Cn1cc(-c2nn(S(=O)(=O)c3ccccc3)c(-c3cnn(C)c3)c2Cl)cn1 | 37% | -4.17
27 | COc1cccc(-c2noc3nc(C)cc(C(=O)N[C@@H](C)CN4CCOCC4)c23)c1 | 1% | -0.17

Row | SMILES | % Inhibition | Z score
28 | Cc1cc2nn(CC(=O)NCc3ccccc3Cl)c(=O)n2c(-c2ccccc2)n1 | -6% | 1.02
29 | O=C1CCCC(=O)N1c1ccc(NC(=O)C2(c3ccc(Cl)cc3)CCOCC2)cc1 | 35% | -3.93
30 | O=C(Cn1c(=O)n(CCc2ccccc2)c(=O)c2ccccc21)NCCCc1ccccc1 | -5% | 0.68
31 | Cc1nc[nH]c1C(=O)N1CCC[C@H](c2[nH]ncc2-c2ccccc2)C1 | -10% | 1.05
32 | CN(C)C(=O)[C@@]12CN(C(=O)COc3ccccc3)C[C@@H]1CN(C(=O)c1ccccc1)C2 | -1% | 0.09
33 | Cc1nc(C(=O)N2CCC[C@H](CCC(=O)N3CCN(c4ccccn4)CC3)C2)cs1 | -9% | 1.12
34 | C[C@H](NC(N)=O)C(=O)NCc1ccc(Cl)s1 | 0% | -0.04
35 | Cc1ccccc1OC1CCCCC1NC(=O)c1nnn(C2CCNC2)c1C (stereo unspecified) | 2% | -0.38
36 | CC(=O)N1CCC(N[C@H]2CCCc3nc(-c4ccccc4)ncc32)CC1 | -13% | 1.75
37 | CC(=O)N1CCC[C@H]1c1nc(CC(C)C)nn1Cc1ccccc1Cl | -11% | 2.28
38 | O=C1c2cccc3c2N(CCC3)C(=O)[C@]1(F)c1ccccc1 | -14% | 1.67
39 | COc1ccc(-c2cc(C(=O)NCc3ccccn3)n[nH]2)cc1S(=O)(=O)N1CCCCC1 | -4% | 0.62
40 | Cn1nc2c(c1C(=O)NC1(c3c(F)cccc3F)COC1)CCC2 | -5% | 0.95
41 | CC(=O)[C@@H]1C[C@H](C(=O)NCc2ccccc2CN2CCOCC2)C1(C)C | -2% | 0.23
42 | Cc1cccc(-c2ccc(N3CCC(C(=O)NC4CCCC4)CC3)nn2)c1 | -16% | 1.53
43 | CCc1nnsc1C(=O)NCC1(c2ccccc2)CC1 | 1% | -0.08
44 | Cc1cccn2cc(Cn3c(=O)n(CC4CC4)c4ccc(C(=O)O)cc43)nc12 | 14% | -1.99
45 | Cc1nn(C)c(Oc2cccnc2)c1NC(=O)c1ccccc1 | -3% | 0.56
46 | N#C[C@@H](C(=O)COC1CCCC1)c1ccccn1 | -15% | 1.68
47 | Cc1nc(N(C)C)nc(N2CCC(N3CCCCC3)CC2)c1C | -4% | 0.81
48 | CNC(=O)c1cc(Oc2cccc(Oc3ncncc3-c3ccccc3)c2C)ccn1 | 6% | -1.3
49 | Cc1ccnn1CCC(=O)N1CC[C@@]2(CCCN(CCC3CCCCC3)C2)C1 | 4% | -0.52
50 | Nc1cnn(Cc2nc(-c3ccsc3)no2)c1 | -36% | 4.21
51 | Cc1noc([C@@H]2CCCO[C@H]2C2CCN(c3nc(C)ns3)CC2)n1 | 4% | -0.71
52 | CCN(CC(F)(F)F)C(=O)NCc1ccc2[nH]cnc2c1 | -2% | 0.4
53 | O=C(NCC(F)F)Nc1cccc(-c2cn[nH]c2)c1 | -5% | 0.53
